Test system: Pseudomonas aeruginosa, Klebsiella pneumoniae, Bacillus subtilis, and Staphylococcus aureus
Test: Preservation of acrylic polymer emulsion (pH 8.2), plate counts
Conditions: for change in bacterial counts (FIG. 2): 0 to 50 ppm
From the text: Samples of a generic acrylic polymer emulsion (49.9% [w/v] solids, pH 8.2) are inoculated with approximately equal numbers (ca. 1×10^6 per ml) of cells of Pseudomonas aeruginosa, Klebsiella pneumoniae, Bacillus subtilis, and Staphylococcus aureus. The cell inocula are evenly dispersed in the emulsion samples by vigorous agitation. Samples are then sampled to measure the initial inoculum size. The acrylic polymer emulsions are then amended with selected concentrations of DBMAL (from 2.5 to 500 ppm [or mg/l]). The biocide-treated emulsions are incubated at room temperature (ca. 23° C.) on a rocker platform to provide gentle agitation. Samples for enumerating surviving bacteria are collected after 2, 24, and 48 hr of incubation, serially diluted in phosphate-buffered saline, and plated onto Tryptic Soy Agar (TSA) plates.
After a 48-hr contact time, samples are collected for plate counts.

Compound	change in bacterial counts (FIG. 2) (48-hr contact time)	bacteria counts (FIG. 1) (2-hr contact time, all but 500 ppm DBMAL)	plate counts (FIG. 1) (24-hr contact time, 2.5 to 500 ppm)	inhibition of test organisms (FIG. 1) (48-hr contact time)	efficacy compared with DBNPA (FIG. 2) (all concentrations tested (0 to 50 ppm), 48-hr contact time)
N#CC(Br)(Br)C(N)=O [DBNPA, 2,2-Dibromo-3-nitrilopropionamide]	reductions in bacterial counts				
NC(=O)C(Br)(Br)C(N)=O [DBMAL, 2,2-Dibromomalonamide]	reductions in bacterial counts	relatively unchanged	clear dose-response relationship	continued to inhibit the test organisms during the entire study	more efficacious than DBNPA

Reference: patent US20100314318A1, “HALOGENATED AMIDE BIOCIDAL COMPOUNDS AND METHODS FOR TREATING WATER SYSTEMS AT NEAR NEUTRAL TO HIGH PH” (priority 2009, published 2010)
